To fix the notation:
B1: 92727876_92727996_1082_3pUTR_ENSMUSG00000008398_ENSMUST00000008542|mouse|control|control (ssRNA)
RNA: GGGAGUUCUACAGUCCGACGAUCAGAGUCGGGGGACAGGGAUGGGGACCGAGAUGAAGAGGGUGACGCAGACGAAAUGCUGGCAGCAUUUGGCAACAUUAAAGAGGAGAUCUUGGCUGAGACAGACGAGGCCAGGAAAGCGGACAACAGAGGAUUGAGCAUCA
B2: chr10:28884852:28884853:+_ENSG00000095787_ENST00000354911|hu_mus|FALSE|FALSE (ssRNA)
RNA: GGGAGUUCUACAGUCCGACGAUCAGAUGCUCCAUUAGCAUCAAAUGAUUUCUUUGGCUGGUGAUCAGACUGAAGCGUAAAUGGACUAGAAGGAACAGUGCUUGGGGUAGCGGUUGGAUGAACCACUGGUUUGAUGGGGUGCUGCAACAGAGGAUUGAGCAUCA
B3: chr2:47387792:47387793:-_ENSG00000143933_ENST00000272298|hu_hu|hu_hu_hu_mus_True|1_1 (ssRNA)
RNA: GGGAGUUCUACAGUCCGACGAUCUAAGGACAAUGACAGUAAGAUAAGGGAAGAAAACAUGGAGGAAUGAAGUCCUAAUUACUAUACAUGCAUAUUUUUUGACAGUAGGGGGGGGGAACCUUUUACAGAUAAGUUACACAAAGACAACAGAGGAUUGAGCAUCA
B4: 160239141_160239261_4123_CDS_ENSG00000123636_ENST00000355831|human|control|control (ssRNA)
RNA: GGGAGUUCUACAGUCCGACGAUCCCCUUGGUCAUCACUGUCAUCGUCAUCAUCAUCGUCAUAAUCACUGUCUCCUCCCUUCCUUCUUCGCUUGCGUCCUGGAGUGGGUGUGCCCAAGGGAUGCUGCUCUUCUCCCAGAUCAAUCAACAGAGGAUUGAGCAUCA
B5: chr2:202488911:202488912:-_ENSG00000155755_ENST00000286196|hu_mus|hu_hu_hu_mus_False|48_88 (ssRNA)
RNA: GGGAGUUCUACAGUCCGACGAUCAUUGAAACAUUUUUCAUAAUCUCAGAGAUGUUUUCAGCAUUAUGUAACAAAAGCUCAAUUGUAAAUACACAUGUCUUAUAAAAAUACACUUAAAAACACGAGUGGGGAGCGCAGGCGCCACAACAGAGGAUUGAGCAUCA
B6: chr10:33214929:33214930:-_ENSG00000150093_ENST00000302278|hu_hu|FALSE|FALSE (ssRNA)
RNA: GGGAGUUCUACAGUCCGACGAUCAACAAGUUCAUUAAAUACUUCUCCUUUAUUAGUAAGACUGAGCACAUUUUUGUAGCUAAAUGGGCUGGUGCAGUUCUGUUCACUUGUGCAAGGGUUCCUGAGCUUAGCUGGUGUUGUGCUCAACAGAGGAUUGAGCAUCA
B7: chr12:97337435:97337436:+_ENSG00000139350_ENST00000266742|hu_hu|FALSE|FALSE (ssRNA)
RNA: GGGAGUUCUACAGUCCGACGAUCAGACUCAGCUGUUAGAUCACGGUUUUCAUUUUCCUCUUUCCCUGGAGAUCCCAUAAAAACAUUAAGAGGACUAGAAUGCAAUACUGAAGUACUUGAAGUUACUGGAUUUUUUCUUGGAGGCAACAGAGGAUUGAGCAUCA
B8: chr10:89103549:89103550:-_ENSMUSG00000069539_ENSMUST00000105294|mus_mus|motif|central (ssRNA)
RNA: GGGAGUUCUACAGUCCGACGAUCUAUCGGUUGGUCUCUGUUGAGGCUGCUUCACGCUAGCAGGAGGAAUAGUCAAAGGGCGGAAGUUUGACAUAGUGGGAGGUGCUCCCAGACUCAUGGUGGUCACGCCAGCUGUGCCCGUCCCAACAGAGGAUUGAGCAUCA
B9: 55182840_55182960_308_CDS_ENSG00000121057_ENST00000337714|human|control|control (ssRNA)
RNA: GGGAGUUCUACAGUCCGACGAUCAGCACCAGCCUCCACCUGCUGCUCAUCAUGGCUGCUGACAUGGCCUUUUUUACGAGAGAAAAACCACCACCAGCCGAGGAGCGCCAGCAUCCCAGGCAAUGCCAAGGGGAAGAGCGAACGCAACAGAGGAUUGAGCAUCA
B10: chr3:52726942:52726943:+_ENSG00000163938_ENST00000418458|hu_mus|FALSE|FALSE (ssRNA)
RNA: GGGAGUUCUACAGUCCGACGAUCCCGAAGGGCAAGUGCAGUGGGGGAGUUACAAGGUGAGAUAAUUAGGCAUGGACUGUCUAUGAUUGUGAUCUGCUUGUCUAAAGGGACAAUCUGCAUGCUCCUUGUAAGUCCCAUGGAAAUCAACAGAGGAUUGAGCAUCA
B11: chrX:117107323:117107324:-_ENSG00000003096_ENST00000371878|hu_hu|FALSE|FALSE (ssRNA)
RNA: GGGAGUUCUACAGUCCGACGAUCUUUGAGCUGCAACAAUACAAAUGGGAUAUAAACCUCAGCAUAGCCUUAGGCUACCGCUAAUAGAGAUCAGUGACUAAAUUCAGCAGCCUGCUUUCCUCCUGUGCAAGCUCUGGCCACACACAACAGAGGAUUGAGCAUCA
B12: chr5:118832277:118832278:+_ENSG00000133835_ENST00000256216|hu_mus|FALSE|FALSE (ssRNA)
RNA: GGGAGUUCUACAGUCCGACGAUCUGACGUGGCUGCAGGUGCCGCGUGACUGGUACGGUUUGGUGAGAUUCCUUCUGAAUCUACCUUAUGUAAAACUUCGACUAUACCACCUGUUGAUUCUUGAAUGGUCUGCGGCUUGCUGGCCAACAGAGGAUUGAGCAUCA
B13: chr10:22824096:22824097:-_ENSG00000150867_ENST00000376573|hu_hu|FALSE|FALSE (ssRNA)
RNA: GGGAGUUCUACAGUCCGACGAUCGAAAUAAAUGACAGACUGUUUGUUAUAGACAAAAAUAAAAGCAUUCUGUAAACUUCUAAAAGCAUACACAGAUUGGCCCCCAAGGAAACAGUUACUCAAAUAAUGUAUGUGUACCUUAUCCAACAGAGGAUUGAGCAUCA
B14: chr12:69233606:69233607:+_ENSG00000135679_ENST00000462284|hu_hu|motif|central (ssRNA)
RNA: GGGAGUUCUACAGUCCGACGAUCUCUAAAUUCCUAGGGUUAUAUAGUUAGAAAUAUAUAAUUCUCUUAUAGACAGGUCAACGGGGGGAAAUAAGUUAGCACAAUCAUUUGAAUUGGUUGUCUACAUACUGGGCAGGGCUUAUUCAACAGAGGAUUGAGCAUCA
B15: chr3:64004597:64004598:-_ENSG00000163636_ENST00000295901|hu_hu|FALSE|FALSE (ssRNA)
RNA: GGGAGUUCUACAGUCCGACGAUCAGUAUAAGUCACAAAUGUUUUAUAAUCCAUGAGUUCAUAGGAUGUAAAUGUUGAAACAGUGUCAAGGAAGAGUUCAGCUGCCUGUUUGAAAUCACGAAUAGCCACACAAUAAAGACCCUGCAACAGAGGAUUGAGCAUCA
B16: chr3:16083472:16083473:+_ENSMUSG00000047213_ENSMUST00000108345|mus_hu|motif|central (ssRNA)
RNA: GGGAGUUCUACAGUCCGACGAUCCGAACCGUUUUGUACUGAAACUUUAUUUCCUUGCCCUUUAGGUCUCUGAUCCACGCGGGUGGCUGACAUUCUUCACCGCAACCCGAGAGCCGCCGCCGCCGCCGCUGCCUGGGCCUCUCCCAACAGAGGAUUGAGCAUCA
B17: chr4:137866854:137866855:+_ENSMUSG00000028757_ENSMUST00000030538|mus_hu|motif|central (ssRNA)
RNA: GGGAGUUCUACAGUCCGACGAUCGUCAUCGCCAUCAAAGGGGACCCAUUUGCCAUUUGAGAGCUGCUGGAUCACGAUGCGGUACUCCACUAGGUCAGUGACAGUGUAGGCAUUGGGUGGGGCUGUCUCGCCCACCCGAUGAUGCAACAGAGGAUUGAGCAUCA
B18: chr17:65740002:65740003:+_ENSG00000130935_ENST00000581375|hu_hu|hu_hu_hu_mus_False|68_88 (ssRNA)
RNA: GGGAGUUCUACAGUCCGACGAUCAACAAAUCUUUCUUCCCUGGACGCAAGAGUUCAUUCAUAUUAACUUUAUAAAAUAUCCAUCAAGUUAGGUGUGGUGGCCACACCUUUACUCCCAGCACUUUGGGAGGUGGAUCUCUGAGUCAACAGAGGAUUGAGCAUCA
B19: chr1:36068893:36068894:-_ENSG00000126067_ENST00000373237|hu_hu|FALSE|FALSE (ssRNA)
RNA: GGGAGUUCUACAGUCCGACGAUCUCCCUGGCAAGUGGGAGGGAGGACAUGAUGUUAGGAGCCCUGUUUGGGGAAGGAAAUGUUAUCCAGGUCAUGGAUGCCAUUUUUGUCAAUGAUUCGAACACUGAAGGUUGGCAGAUUCAGCAACAGAGGAUUGAGCAUCA
B20: chr8:127197416:127197417:-_ENSMUSG00000037300_ENSMUST00000118134|mus_hu|FALSE|FALSE (ssRNA)
RNA: GGGAGUUCUACAGUCCGACGAUCUUUGGCGACUUUGCUAAAGGCCUCUGAACCAGGGGCUGUCAUAGCUUCAAAGUCGACUAACUUCCCUUUGGGAAUUUUUCCUGCUACUUCUUUUCCACUUGCCAUCAGUGCUCCCACGAUCAACAGAGGAUUGAGCAUCA
B21: chr9:78326885:78326886:-_ENSMUSG00000037742_ENSMUST00000042235|mus_mus|motif|central (ssRNA)
RNA: GGGAGUUCUACAGUCCGACGAUCCAGCUUCUUACCAGAACGACGAUCGAUCUUUUCUUUAAGCUCAGCAAACUUGCAUGCGGUGUGGGCUGUGUGACAAUCCAGAACAGGAGCGUAGCCAGCACUGAUUUGGCCUGGAUGGUUCAACAGAGGAUUGAGCAUCA
B22: chr9:128199989:128199990:-_ENSG00000119487_ENST00000373498|hu_hu|motif|central (ssRNA)
RNA: GGGAGUUCUACAGUCCGACGAUCUUUAAGAUGCUGUUUUAGACACAUCUCUUCCUGUACAACAAUUUAAAAAAUGUUUCGGAUGCAGGUCCUCAGUGAAACACCGGUCCCCGGCCCUGGCUGGGGACAGUAAGGACAUCACCGCAACAGAGGAUUGAGCAUCA

The list shows a part of the results.

In the assay the target is T1, UNK ZnF1-3 (human, UniProt Q9C0B0 31-174).
T1 sequence: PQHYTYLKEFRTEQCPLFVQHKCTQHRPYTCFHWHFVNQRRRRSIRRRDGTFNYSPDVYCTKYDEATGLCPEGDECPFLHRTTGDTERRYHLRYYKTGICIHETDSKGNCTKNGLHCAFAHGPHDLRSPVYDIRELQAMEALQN
In words: nsRBNS (natural sequence RNA bind-n-seq); RBNS binding buffer (assumed for nsRBNS): 25 mM Tris pH 7.5, 150 mM KCl, 3 mM MgCl2, 0.01% Triton X-100, 500 ug/ml BSA, 20 U/ml SUPERase-In, 4 C; UNK is unkempt and MSI1 is Musashi-1; names of the RNAs are library labels; protein concentration not given here; high values mean tight binding.
Consider B1, for which the binding signal was determined as 2.16 enrichment R.

The molecule B2 had a binding signal of 1.23 enrichment R.

Consider B3, for which the binding signal turned out to be 2.2 enrichment R.

B4 came in with a binding signal of 0.678 enrichment R.

B5 yielded a binding signal of 0.866 enrichment R.

B6 had a binding signal of 1.1 enrichment R.

B7 displayed a binding signal of 1.47 enrichment R.

In turn, B8 came in with a binding signal of 0.821 enrichment R.

In turn, B9 displayed a binding signal of 1.43 enrichment R.

The molecule B10 had a binding signal of 0.799 enrichment R.

Regarding B11, the binding signal was determined as 0.866 enrichment R.

Take B12: the binding signal came to 0.572 enrichment R.

In turn, B13 came in with a binding signal of 1.15 enrichment R.

With B14, the binding signal was 2 enrichment R.

With B15, the binding signal was found to be 1.37 enrichment R.

In the case of B16, the binding signal was 0.635 enrichment R.

B17 had a binding signal of 0.888 enrichment R.

Turning to B18, the binding signal amounted to 0.774 enrichment R.

As to B19, the binding signal is 1.39 enrichment R.

B20 gave a binding signal of 0.522 enrichment R.

B21 registered a binding signal of 1.07 enrichment R.

For the molecule B22, the binding signal was 0.542 enrichment R.
